Results on eleven variants are retold here after the supplement of paper PMC12217912.

First the molecules themselves.
B1: TEV protease; numbered along this chain (parent)
chain: MGESLFKGPRDYNPISSSICHLTNESDGHTTSLYGIGFGPFIITNKHLFRRNNGTLVVQSLHGVFKVKDTTTLQQHLVDGRDMIIIRMPKDFPPFPQKLKFREPQREERICLVTTNFQTKSMSSMVSDTSCTFPSGDGIFWKHWIQTKDGQCGSPLVSTRDGFIVGIHSASNFTNTNNYFTSVPKNFMELLTNQEAQQWVSGWRLNADSVLWGGHKVFMVKPEEPFQPVKEATQL

The list shows a part of the results. The full chains were built here from the parent and the listed change. Inactive controls read about 0.05.

The assay covers variants of B1. The assay is described as follows: raw area under fraction-flipped curve 0-4 h after induction (AUC4h, not background-subtracted), DNA-recorder readout of cleavage of the substrate (dimensionless); higher = more cleavage of the substrate by the protease variant. As to conditions: temperature: 34 °C; time window: 0-4 h after rhamnose induction.
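Further: Bxb1 expression induced with 0.2% (w/v) L-rhamnose at OD600 near 0.5, cultures sampled hourly, flipped fraction per protease–substrate barcode pair counted by paired-end Illumina sequencing.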

For MGESLFKGPRDYNPISSSICHLTNESDGHTTSLYGIGFGPFIITNKHLFRRNNGTLVVQSLHGVFKVKDTTTLQQHLVDGRDMIIIRMPKDFPPFPQKLKFREPQREERICLVTTNFQTKSMSSMVSDTSCTFPSGDGIFWKHWIQTKDGQCGSPLVSTRDGFIVGIHSASNFTNTNNYFTSVPKNFMELLTNQEAQQWVSGWRLNADSVLWGGPKVFMVKPEEPFQPVKEATQL [H215P], the “area with substrate ECLYFQS” value turned out to be 0.0478, the “area with substrate EDLYFQS” value is 0.0123, the “area with substrate EELYFQS” value was 0.0795 and the “area with substrate EGLYFQS” value is 0.0639. Further, the “area with substrate EILYFQS” value was 0.0543, the “area with substrate EKLYFQS” value is 0.0919, the “area with substrate EMLYFQS” value worked out at 0.0617 and the “area with substrate EQLYFQS” value is 0.0673. The “area with substrate ERLYFQS” value was 0.0522, the “area with substrate ESLYFQS” value was determined as 0.0638, the “area with substrate EVLYFQS” value came out at 0.0561 and the “area with substrate EWLYFQS” value is 0.0618. Also, the “area with substrate EYLYFQS” value turned out to be 0.0506.

As for MGESLFKGPRDYNPISSSICHLTNESDGHTTSLYGIGFGPFIITNKHLFRRNNGTLVVQSLHGVFKVKDTTTLQQHLVDGRDMIIIRMPKDFPPFPQKLKFREPQREERICLVTTNFQTKSMSSMVSDTSCTFPSGDGIFWKHWIQTKDGQCGSPLVSTRDGFIVGIHSASNFTNTNNYFTSVPKNFMELLTNQEAQQWVSGWRTNADSVLWGGHKVFMVKPEEPFQPVKEATQL [L205T], the “area with substrate ECLYFQS” value came to 0.0699, the “area with substrate EELYFQS” value amounted to 0.0692 and the “area with substrate EKLYFQS” value came out at 0.0697.

Take MGESLFKGPRDYNPISSSICHLTNESDGHTTSLYGIGFGPFIITNKHLFRRNNGTLVVQSLHGVFKVKDTTTLQQHLVDGRDMIIIRMPKDFPPFPQKLKFREPQREERICLVTTNFQTKSMSSMVSDTSCTFPSGDGIFWKHWIQTKDGQCGSPLVSTRDGFIVGIHSASNFTNTNNYFTSVPKNFMELLTNQEAQQWVSGWRLNHDSVLWGGHKVFMVKPEEPFQPVKEATQL [A207H]: the “area with substrate ECLYFQS” value was 0.0915, the “area with substrate EDLYFQS” value was found to be 0.152, the “area with substrate EELYFQS” value stood at 0.134 and the “area with substrate EFLYFQS” value was found to be 0.11. The “area with substrate EHLYFQS” value was 0.181, the “area with substrate EILYFQS” value worked out at 0.092, the “area with substrate EQLYFQS” value was 0.0064 and the “area with substrate ESLYFQS” value turned out to be 0.102. In addition, the “area with substrate EVLYFQS” value was 0.0932.

On to MGESLFKGPRDYNPISSSICHLTNESDGHTTSLYGIGFGPFIITNKHLFRRNNGTLVVQSLHGVFKVKDTTTLQQHLVDGRDMIIIRMPKDFPPFPQKLKFREPQREERICLVTTNFQTKSMSSMVSDTSCTFPSGDGIFWKHWIQTKDGQCGSPLVSTRDGFIVGIHSASNFTNTNNYFTSVPKNFMELLTNQEAQQWVSGWRLNWDSVLWGGHKVFMVKPEEPFQPVKEATQL [A207W], for which the “area with substrate ECLYFQS” value is 0.114, the “area with substrate EELYFQS” value was 0.0064, the “area with substrate EFLYFQS” value turned out to be 0.006 and the “area with substrate EGLYFQS” value amounted to 0.0891. Moreover, the “area with substrate EILYFQS” value amounted to 0.0778, the “area with substrate ELLYFQS” value is 0.0821, the “area with substrate EMLYFQS” value worked out at 0.101 and the “area with substrate EQLYFQS” value worked out at 0.105. Further, the “area with substrate ESLYFQS” value turned out to be 0.082, the “area with substrate EVLYFQS” value came to 0.0865 and the “area with substrate EWLYFQS” value came to 0.085.

Regarding MGESLFKGPRDYNPISSSICHLTNESDGHTTSLYGIGFGPFIITNKHLFRRNNGTLVVQSLHGVFKVKDTTTLQQHLVDGRDMIIIRMPKDFPPFPQKLKFREPQREERICLVTTNFQTKSMSSMVSDTSCTFPSGDGIFWKHWIQTKDGQCGSPLVSTRDGFIVGIHSASNFTNTNNYFTSVPKNFMELLTNQEAQQWVSGWRLNQDSVLWGGHKVFMVKPEEPFQPVKEATQL [A207Q], the “area with substrate ECLYFQS” value amounted to 0.11, the “area with substrate EELYFQS” value stood at 0.132, the “area with substrate EFLYFQS” value amounted to 0.103 and the “area with substrate EHLYFQS” value was determined as 0.102. Moreover, the “area with substrate EILYFQS” value was found to be 0.102, the “area with substrate ELLYFQS” value is 0.0881, the “area with substrate ERLYFQS” value was determined as 0.104 and the “area with substrate ESLYFQS” value was 0.105. Further, the “area with substrate ETLYFQS” value is 0.124 and the “area with substrate EYLYFQS” value was 0.0857.

On to MGESLFKGPRDYNPISSSICHLTNESDGHTTSLYGIGFGPFIITNKHLFRRNNGTLVVQSLHGVFKVKDTTTLQQHLVDGRDMIIIRMPKDFPPFPQKLKFREPQREERICLVTTNFQTKSMSSMVSDTSCTFPSGDGIFWKHWIQTKDGQCGSPLVSTRDGFIVGIHSASNFTNTNNYFTSVPKNFMELLTNQEAQHWVSGWRLNADSVLWGGHKVFMVKPEEPFQPVKEATQL [Q198H], for which the “area with substrate ECLYFQS” value came to 0.0706, the “area with substrate EDLYFQS” value was determined as 0.0967, the “area with substrate EELYFQS” value stood at 0.11 and the “area with substrate EQLYFQS” value turned out to be 0.11. The “area with substrate ESLYFQS” value was 0.114, the “area with substrate EVLYFQS” value was found to be 0.0914 and the “area with substrate EWLYFQS” value is 0.0551.

Consider MGESLFKGPRDYNPISSSICHLTNESDGHTTSLYGIGFGPFIITNKHLFRRNNGTLVVQSLHGVFKVKDTTTLQQHLVDGRDMIIIRMPKDFPPFPQKLKFREPQREERICLVTTNFQTKSMSSMVSDTSCTFPSGDGIFWKHWIQTKDGQCGSPLVSTRDGFIVGIHSASNFTNTNNYFTSVPKNFMELLTNQEAAQWVSGWRLNADSVLWGGHKVFMVKPEEPFQPVKEATQL [Q197A], for which the “area with substrate ECLYFQS” value came out at 0.124, the “area with substrate EDLYFQS” value is 0.115, the “area with substrate EFLYFQS” value turned out to be 0.0881 and the “area with substrate EHLYFQS” value worked out at 0.11. Further, the “area with substrate EKLYFQS” value turned out to be 0.0694, the “area with substrate EMLYFQS” value came out at 0.1, the “area with substrate EQLYFQS” value amounted to 0.11 and the “area with substrate ERLYFQS” value turned out to be 0.0671. Also, the “area with substrate EVLYFQS” value stood at 0.0707 and the “area with substrate EWLYFQS” value came out at 0.0581.

Take MGESLFKGPRDYNPISSSICHLTNESDGHTTSLYGIGFGPFIITNKHLFRRNNGTLVVQSLHGVFKVKDTTTLQQHLVDGRDMIIIRMPKDFPPFPQKLKFREPQREERICLVTTNFQTKSMSSMVSDTSCTFPSGDGIFWKHWIQTKDGQCGSPLVSTRDGFIVGIHSASNFTNTNNYFTSVPKNFMELLTNQESQQWVSGWRLNADSVLWGGHKVFMVKPEEPFQPVKEATQL [A196S]: the “area with substrate ECLYFQS” value is 0.112, the “area with substrate EDLYFQS” value came to 0.103, the “area with substrate EELYFQS” value worked out at 0.125 and the “area with substrate EFLYFQS” value was found to be 0.0772. The “area with substrate EGLYFQS” value was found to be 0.0697, the “area with substrate EILYFQS” value came to 0.0849, the “area with substrate EKLYFQS” value turned out to be 0.114 and the “area with substrate ELLYFQS” value is 0.0842. Further, the “area with substrate EMLYFQS” value worked out at 0.119, the “area with substrate EPLYFQS” value was found to be 0.102, the “area with substrate EQLYFQS” value turned out to be 0.115 and the “area with substrate ESLYFQS” value came to 0.102. Further, the “area with substrate EVLYFQS” value is 0.0866.

Take MGESLFKGPRDYNPISSSICHLTNESDGHTTSLYGIGFGPFIITNKHLFRRNNGTLVVQSLHGVFKVKDTTTLQQHLVDGRDMIIIRMPKDFPPFPQKLKFREPQREERICLVTTNFQTKSMSSMVSDTSCTFPSGDGIFWKHWIQTKDGQCGSPLVSTRDGFIVGIHSASNFTNTNNYFTSVPKNFMELLTNQEAQQWVSGWRLNADSVYWGGHKVFMVKPEEPFQPVKEATQL [L211Y]: the “area with substrate ECLYFQS” value came out at 0.132, the “area with substrate EDLYFQS” value worked out at 0.129, the “area with substrate EGLYFQS” value was 0.0983 and the “area with substrate EHLYFQS” value came out at 0.108. Also, the “area with substrate EILYFQS” value came to 0.107, the “area with substrate EKLYFQS” value worked out at 0.136, the “area with substrate EPLYFQS” value came to 0.113 and the “area with substrate ERLYFQS” value worked out at 0.106. The “area with substrate ESLYFQS” value came out at 0.106 and the “area with substrate ETLYFQS” value came to 0.111.

Regarding MGESLFKGPRDYNPISSSICHLTNESDGHTTSLYGIGFGPFIITNKHLFRRNNGTLVVQSLHGVFKVKDTTTLQQHLVDGRDMIIIRMPKDFPPFPQKLKFREPQREERICLVTTNFQTKSMSSMVSDTSCTFPSGDGIFWKHWIQTKDGQCGSPLVSTRDGFIVGIHSASNFTNTNNYFTSVPKNFMELLTNQEAQQWVSTWRLNADSVLWGGHKVFMVKPEEPFQPVKEATQL [G202T], the “area with substrate ECLYFQS” value is 0.086, the “area with substrate EDLYFQS” value was 0.077, the “area with substrate EELYFQS” value came out at 0.0541 and the “area with substrate EGLYFQS” value is 0.0914. Also, the “area with substrate EHLYFQS” value is 0.0672, the “area with substrate EKLYFQS” value worked out at 0.072, the “area with substrate ELLYFQS” value turned out to be 0.0637 and the “area with substrate EQLYFQS” value came to 0.0746. Besides, the “area with substrate ERLYFQS” value came to 0.0638, the “area with substrate ESLYFQS” value was found to be 0.061, the “area with substrate ETLYFQS” value turned out to be 0.054 and the “area with substrate EYLYFQS” value turned out to be 0.0672.

On to MGESLFKGPRDYNPISSSICHLTNESDGHTTSLYGIGFGPFIITNKHLFRRNNGTLVVQSLHGVFKVKDTTTLQQHLVDGRDMIIIRMPKDFPPFPQKLKFREPQREERICLVTTNFQTKSMSSMVSDTSCTFPSGDGIFWKHWIQTKDGQCGSPLVSTRDGFIVGIHSASNFTNTNNYFTSVPKNFMELLTNQEAQQWVSGWRLNADSVLWGGHKKFMVKPEEPFQPVKEATQL [V217K], for which the “area with substrate ECLYFQS” value was 0.0618, the “area with substrate EDLYFQS” value is 0.0738, the “area with substrate EGLYFQS” value is 0.0699 and the “area with substrate EHLYFQS” value is 0.0606. The “area with substrate EILYFQS” value is 0.0644, the “area with substrate EKLYFQS” value worked out at 0.0623, the “area with substrate ESLYFQS” value came to 0.0631 and the “area with substrate ETLYFQS” value worked out at 0.064. Further, the “area with substrate EVLYFQS” value is 0.0617 and the “area with substrate EYLYFQS” value was 0.0779.
